In ChEMBL document CHEMBL1201862, “PubChem BioAssay data set” (2004):
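A five-concentration, 48-hour dose response in 96-well plates underlies each endpoint, interpolated linearly between surrounding concentrations. GI50 = concentration required for 50% inhibition of growth.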 Activity calls are given as the source filed them. Rule as the data show it: active = GI50 up to about 1.1 µM and inactive = higher.

test system: NCI-H322M; assay: inhibition of tumour cell growth, NCI panel, 48 h

Row | Structure (SMILES) | GI50
1 | CC(C)(C)c1ccc(NS(=O)(=O)c2ccc(N)cc2)cc1 | inactive: 36.3 µM
2 | CCSC(=O)N1c2ccc(OC)cc2C=CC1C#N (stereo not drawn) | inactive: 4.52 µM
3 | Cc1cc(Cc2c(C)c(C)c(Cc3cc(C)cc(C(C)(C)C)c3O)c(C)c2C)c(O)c(C(C)(C)C)c1 | inactive: > 100 µM
4 | CN(CC(=O)O)c1ccc(/C=C/c2ccnc3ccccc23)cc1 | inactive: 10 µM
5 | Cc1cc(S(=O)(=O)Nc2nc(N)nc(N3CCOCC3)n2)c(SCC(=O)O)cc1Cl | inactive: > 10 µM
6 | O=C1OC2C(O)COC2(O)C1(O)Cc1c[nH]c2ccccc12.O=C1OC2C(O)COC2(OCc2c[nH]c3ccccc23)C1O (stereo not drawn) | inactive: > 100 µM
7 | CC1CC[C@@]2(OC1)OC1C[C@H]3[C@@H]4CC=C5CC(OC6OC(CO)C(OC7OC(CO)C(O)C(OC8OCC(O)C(O)C8O)C7OC7OC(CO)C(OC8OC(C)C(OC9OC(C)C(O)C(O)C9O)C(O)C8O)C(O)C7O)C(O)C6O)CCC5(C)[C@H]4CCC3(C)C1[C@@H]2C (stereo partly drawn) | inactive: 5.37 µM
8 | CN1CCN([C@H]2C[C@H]3[C@@H]4CC=C5C[C@@H](O)CC[C@]5(C)[C@H]4CC[C@]3(C)[C@H]2O)CC1 | inactive: > 45.4 µM
9 | CC1=C(c2cc(C(=O)Nc3nccs3)nc(NC#N)n2)Sc2ccccc2N1 | inactive: > 100 µM
10 | C=C1c2c(cc3c(c2O)c(=O)c2ccccc2n3C)OC1(C)C | inactive: > 100 µM
11 | Cn1c2ccccc2n2c(=O)c3cc([N+](=O)[O-])ccc3c(C#N)c12 | inactive: > 100 µM
12 | CC(C)(C)C1CC[C@H]2c3c([nH]c4ccccc34)[C@H]3C(=O)N(c4ccc(F)cc4)C(=O)[C@H]3[C@H]2C1 (stereo partly drawn) | inactive: 19.5 µM
13 | COP(=O)(C(/C=C/c1ccccc1)OC(C)=O)[C@@H]1CCCC[C@H]1N(CC(C)(C)C)C(C)=O (stereo partly drawn) | inactive: 23.4 µM
14 | Cc1ccc(CC2(OCCN(C)C)CCC(C(C)(C)C)CC2)cc1 (stereo not drawn) | inactive: 3.07 µM
15 | CC(C)(C)OC(=O)N1CC(O)O[C@H](c2ccccc2)[C@@H]1c1ccccc1 (stereo partly drawn) | inactive: 33.2 µM
16 | CN(C)c1ccc(/C=N/c2nc3cc4sc(/N=C/c5ccc(N(C)C)cc5)nc4cc3s2)cc1 | inactive: > 100 µM
17 | NC1C2C(CC(=O)O)OCC=C3CN4CCC1(C(=O)C(=O)O)C4CC32 (stereo not drawn) | inactive: > 100 µM
18 | Cc1nnc2n1N=C(c1cc(F)c(Cl)cc1Cl)/C(=C/c1ccc(Cl)cc1)S2 | inactive: 13 µM
19 | O=C(/C=C/c1ccccc1)CSc1nc2ccc(I)cc2c(=O)n1Cc1ccccc1 | inactive: 24.4 µM
20 | NS(=O)(=O)C1CCCCC1C(=O)NNC(=O)C(=O)Nc1nnc(S)[nH]1 (stereo not drawn) | inactive: > 100 µM
21 | Cc1cc(C)[n+]2c(c1)C=CC2.[O-][Cl+3]([O-])([O-])[O-] | inactive: 40.6 µM
22 | CSc1ncc2c(C#N)c3ccccn3c(=O)c2n1 | inactive: > 100 µM

Row | Structure (SMILES) | GI50
23 | O=[N+]([O-])c1cc(C2SCc3nc4ccccc4n32)ccc1Cl (stereo not drawn) | inactive: 40.9 µM
24 | OC1CCCCCCCCCCC1SCCCCl (stereo not drawn) | inactive: > 100 µM
25 | O=C(/C=C/c1ccccc1O)c1cccs1 | inactive: > 100 µM
26 | S=C(Nc1ccccc1)N1N=C2c3ccccc3CC[C@H]2[C@@H]1c1ccccc1 | inactive: > 100 µM
27 | COC(=O)C(=O)C(C(=O)OC)C(=O)C(=O)Nc1cc(Cl)c(Cl)cc1Cl (stereo not drawn) | inactive: > 100 µM
28 | COC(=O)CC(CC(=O)C(=O)OC)C(=O)OC (stereo not drawn) | inactive: > 100 µM
29 | CO[C@H]1c2cccc3cccc(c23)[C@@H]1n1[nH]c(=O)n(C(C)(C)C)c1=O | inactive: > 100 µM
30 | O=C(NN1C(=O)CS(=O)(=O)C1c1ccc(C(F)(F)F)cc1)c1ccncc1 (stereo not drawn) | inactive: > 100 µM
31 | O=C(O)COc1ccc(C(=O)/C(SS/C(C(=O)c2ccc(OCC(=O)O)c(Cl)c2Cl)=C2\C=C(c3ccccc3Cl)SS2)=C2/C=C(c3ccccc3Cl)SS2)c(Cl)c1Cl | inactive: 78.7 µM
32 | C/C(=C\c1ccccc1)C(O)C(=O)c1nc2ccc(Cl)cc2nc1O (stereo not drawn) | inactive: > 100 µM
33 | CC(C)C(=O)[C@@]1(C)SC[C@H]2CCN=C21 | inactive: > 100 µM
34 | COc1ccc2[nH]c3c(C)c4ccncc4c(C)c3c2c1 | active: 0.198 µM
35 | CCCN(CCCC(NC(C)=O)C(=O)NCc1ccccc1)C(=O)N(CCCl)N=O (stereo not drawn) | inactive: 25.5 µM
36 | O=C1CSC(C(/N=N/c2ccc(Cl)cc2)c2nc3ccccc3[nH]2)=N1 (stereo not drawn) | inactive: > 100 µM
37 | CN(C)CCCNC(=O)N/N=C/c1cccc([N+](=O)[O-])c1 | inactive: > 100 µM
38 | O=C(/C=N/O)c1c(-c2ccccc2)[nH]c(-c2ccccc2)c1-c1ccccc1 | inactive: 11.6 µM
39 | CC(C)Oc1cccc(N2C(n3ccnc3)=Nc3ccncc3S2(=O)=O)c1 | inactive: 17.8 µM
40 | O=C(CCc1nnc2s/c(=C\c3ccc(Cl)cc3Cl)c(=O)n12)Nc1cc(Cl)c(Cl)cc1Cl | inactive: > 10 µM
41 | N#Cc1c(N)nc(Sc2ccccc2N)c(C#N)c1-c1ccccc1 | inactive: 49.5 µM
42 | O=C1Sc2ccc(Br)cc2C(=O)Sc2ccccc21 | inactive: 17.9 µM
43 | Cc1ccc([N+](=O)[O-])cc1S(=O)(=O)Nc1ccc(C2=NOC(c3ccco3)C2)cc1 (stereo not drawn) | inactive: 24.8 µM
44 | C=CCC(C)(C(=O)NCCC)C(=O)c1ccccc1O (stereo not drawn) | inactive: > 100 µM

Row | Structure (SMILES) | GI50
45 | CCCCCCCCOCC(O)COC(=O)CCCCCCC (stereo not drawn) | inactive: > 100 µM
46 | C1=CC2(C=CC13O[C@H](C1CCCCC1)[C@@H](C1CCCCC1)O3)O[C@H](C1CCCCC1)[C@@H](C1CCCCC1)O2 | inactive: > 50 µM
47 | O=P1(O)C=CC2(CCCC2)O1 | inactive: > 100 µM
48 | C=C1c2ccccc2C(=O)c2c1c1c(C(=O)OC)c(O)ccc1n2Cc1ccccc1 | inactive: 1.55 µM
49 | CCOC(=O)CNC(SC)=C(C#N)C#N | inactive: > 100 µM
50 | CCN(CC)CC(=O)NC1c2ccccc2Oc2c(C)cccc21 (stereo not drawn) | inactive: > 100 µM
51 | O=[N+]([O-])c1ccc(S(=O)(=O)n2c3ccc(Br)cc3c3nc4ccccc4nc32)cc1 | inactive: > 100 µM
52 | C=Cc1c(C)c(OC)cc2c1Oc1ccc(OC)c(C)c1CC2 | inactive: > 100 µM
53 | O=C1C=CC(=O)c2c1ccc1c3ccccc3n(CCCCCn3c4ccccc4c4ccc5c(c43)C(=O)C=CC5=O)c21 | inactive: > 100 µM
54 | Cc1cc(N(CCC#N)CCC#N)ccc1/C=C1N=C(/C=C/c2ccccc2)OC(=O)N\1 | inactive: > 100 µM
55 | CO/C(N)=C(C#N)/N=C/c1ccccc1 | inactive: > 100 µM
56 | CCCN(C(=O)c1ccccc1)C(C#N)c1ccc(C(C#N)N(CCC)C(=O)c2ccccc2)cc1 (stereo not drawn) | inactive: 55.8 µM
57 | N#Cc1c(C#N)c(-c2ccccc2)n(/N=C\c2ccccc2)c1N | inactive: 34.8 µM
58 | Cc1cc(C)c(N)c(C)c1N | inactive: > 100 µM
59 | COc1ccc(CCN2CCC(C#N)(c3ccc(OC)c(OC)c3)CC2)cc1OC | inactive: > 100 µM
60 | C#Cc1ccccc1C(=O)OC | inactive: > 100 µM
61 | CC(C)C1/C(=N/O)CC(c2ccccc2)N(N=O)C1c1ccccc1 (stereo not drawn) | inactive: 42 µM
62 | O=C(c1cccs1)N(C(=S)N1CCN(c2ccccc2)CC1)c1ccccc1 | inactive: > 100 µM
63 | CC(C)(C)C1(COC(=O)c2ccc(N)cc2)COC1 | inactive: > 100 µM
64 | CN(CCc1ccccn1)c1ccc2c(c1)C(=O)c1ccccc1-2 | inactive: 45.9 µM
65 | Cc1cc(N(CCC#N)CCC#N)ccc1/N=N/c1cccc(Cl)c1 | inactive: > 100 µM
66 | Cc1cccc(NC(=O)c2c(N)[n+]([O-])c3ccccc3[n+]2[O-])c1 | inactive: 17.1 µM

Row | Structure (SMILES) | GI50
67 | CCCCCn1cc2c3c(cccc31)C1C=C(C)CN(C)[C@@H]1C2.Cc1ccc(C(=O)OC(C(=O)O)C(OC(=O)c2ccc(C)cc2)C(=O)O)cc1 (stereo not drawn) | inactive: 9.27 µM
68 | OCC1OC(n2cnc3cccnc32)CC1O (stereo not drawn) | inactive: > 100 µM
69 | Nc1ncnc2c1ncn2CC(OCP(=O)(O)O)Oc1ccccc1 (stereo not drawn) | inactive: > 100 µM
70 | CCOC(=O)C(CC(C)C)NC(=O)CSc1nnc(COc2ccc(Cl)cc2)n1-c1ccccc1 (stereo not drawn) | inactive: 18.6 µM
71 | Cn1c(=O)c(C(=O)NC(=O)OCc2ccccc2)cn(CCSCCOC(=O)NCCCCCCNC(=O)OCCSCCn2cc(C(=O)NC(=O)OCc3ccccc3)c(=O)n(C)c2=O)c1=O | inactive: > 100 µM
72 | C#Cc1cc(CN(CC(=O)OC(C)(C)C)CC(=O)OC(C)(C)C)nc(CN(CC(=O)OC(C)(C)C)CC(=O)OC(C)(C)C)c1 | inactive: 8.36 µM
73 | O=C(NNc1ccc([N+](=O)[O-])cc1)C1OC(CO)C(O)C1O (stereo not drawn) | inactive: > 100 µM
74 | O=C(Cn1c2ccc(Br)cc2c2nc3ccccc3nc21)N/N=C/c1ccccc1 | inactive: 39.4 µM
75 | CC(C)(C)N1C(C(=O)c2ccccc2)C1c1ccccc1 (stereo not drawn) | inactive: > 100 µM
76 | O=C(O)CC(O)(C(=O)O)C(O)C(=O)O (stereo not drawn) | inactive: > 1000 µM
77 | COc1cc(C2c3[nH]c4ccc(F)cc4c3C[C@H]3COC(=O)N23)cc(OC)c1O (stereo partly drawn) | inactive: 24.8 µM
78 | CC(=O)OC1CC[C@@]2(C)C(CC(OC3OC(CO)C(O)C(O)C3O)[C@]3(C)C2CCC24CC23CC[C@H]4C(C)CC(O)[C@@H](O)C(C)(C)O)C1(C)C (stereo partly drawn) | inactive: 14.6 µM
79 | C=C(C)C(=O)OC1C[C@H](COC(C)=O)C2CC=C(C)C2C2OC(=O)C(=C)[C@H]12 (stereo partly drawn) | inactive: 16.1 µM
80 | C=CC[P@]1(=O)O[C@H](c2ccccc2)C(C)N1C(C)C (stereo partly drawn) | inactive: > 100 µM
81 | CN1CC[C@]2(C)c3c(O)cccc3CC3CCCC1C32C (stereo partly drawn) | inactive: > 100 µM
82 | C=C1CCC([N+](=O)[O-])[C@](C)(N=O)CC[C@@H]2C1CC2(C)C (stereo partly drawn) | inactive: 32.1 µM
83 | C[C@]12CC[C@@H]3c4cc(I)c(O)cc4CC[C@H]3[C@@H]1CC[C@@H]2O | inactive: 4.98 µM
84 | Cc1cccc(/C=C2\CCCCCC2=O)c1 | inactive: > 100 µM
85 | Nc1ccc(-c2nc3ccc(F)cc3s2)cc1I | inactive: > 100 µM
86 | CC1(C)C[C@H]2C3=CC[C@@H]4[C@@]5(C)CC[C@H](O)C(C)(C)[C@@H]5CC[C@@]4(C)[C@]3(C)C[C@@H](O)[C@@]23C[C@@H]1OC3=O | inactive: > 100 µM
87 | Nc1ccc(O)c2c1C(=O)c1c(N)ccc(O)c1C2=O | inactive: > 100 µM
88 | Cn1cnc([N+](=O)[O-])c1Sc1nccc(O)n1 | inactive: > 100 µM
